Results from the supplement of paper PMC8728848.
The other results are listed elsewhere or left out.

Columns and labels:
Assay in all cases: glycan array binding signal (z-score within array); higher = stronger binding
Conditions in all cases: glycan notation: IUPAC condensed, linker removed
[1] = molecular target: Gal(b1-3)[Fuc(a1-4)]GlcNAc
How it was run: (§1)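 Glycan array binding is given as a within-array Z-score, which can be read as non-binding when negative. The arrays, 3228 of them, came from the Consortium for Functional Glycomics database and were retained only where the protein sequence was available. Z-scores were averaged across arrays of the same protein sequence at different concentrations or buffers and across linkers.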

[2] = molecular target: Gal(b1-3)[Fuc(a1-4)]GlcNAc(b1-2)Man(a1-3)[Gal(b1-3)[Fuc(a1-4)]GlcNAc(b1-2)Man(a1-6)]Man(b1-4)GlcNAc(b1-4)GlcNAc
How it was run: as §1

[3] = molecular target: Gal(b1-3)[Fuc(a1-4)]GlcNAc(b1-2)Man(a1-3)[Gal(b1-3)[Fuc(a1-4)]GlcNAc(b1-2)Man(a1-6)]Man(b1-4)GlcNAc(b1-4)[Fuc(a1-6)]GlcNAc
How it was run: as §1

[4] = molecular target: Gal(b1-3)[Fuc(a1-4)]GlcNAc(b1-3)Gal(b1-3)[Fuc(a1-4)]GlcNAc
How it was run: as §1

[5] = molecular target: Gal(b1-3)[Fuc(a1-4)]GlcNAc(b1-3)Gal(b1-4)GlcNAc
How it was run: as §1

[6] = molecular target: Gal(b1-3)[Fuc(a1-4)]GlcNAc(b1-3)Gal(b1-4)[Fuc(a1-3)]GlcNAc
How it was run: as §1

[7] = molecular target: Gal(b1-3)[GlcNAc(b1-6)]GalNAc
How it was run: as §1

[8] = molecular target: Gal(b1-3)[Neu5Ac(a2-6)]GalNAc
How it was run: as §1

[9] = molecular target: Gal(b1-3)[Neu5Ac(a2-6)]GlcNAc(b1-6)Gal(b1-4)Glc
How it was run: as §1

[10] = molecular target: Gal(b1-3)[Neu5Ac(b2-6)]GalNAc
How it was run: as §1

[11] = molecular target: Gal(b1-4)GalNAc(a1-3)[Fuc(a1-2)]Gal(b1-4)GlcNAc
How it was run: as §1

[12] = molecular target: Gal(b1-4)GalNAc(b1-3)[Fuc(a1-2)]Gal(b1-4)GlcNAc
How it was run: as §1

[13] = molecular target: Gal(b1-4)Glc
How it was run: as §1

[14] = molecular target: Gal(b1-4)Glc6S
How it was run: as §1

[15] = molecular target: Gal(b1-4)GlcNAc
How it was run: as §1

[16] = molecular target: Gal(b1-4)GlcNAc(a1-6)Gal(b1-4)GlcNAc
How it was run: as §1

[17] = molecular target: Gal(b1-4)GlcNAc(b1-2)Man(a1-3)Man(b1-4)GlcNAc(b1-4)GlcNAc
How it was run: as §1

[18] = molecular target: Gal(b1-4)GlcNAc(b1-2)Man(a1-3)[Gal(b1-4)GlcNAc(b1-2)Man(a1-6)]Man(b1-4)GlcNAc(b1-4)GlcNAc
How it was run: as §1

[19] = molecular target: Gal(b1-4)GlcNAc(b1-2)Man(a1-3)[Gal(b1-4)GlcNAc(b1-2)Man(a1-6)]Man(b1-4)GlcNAc(b1-4)[Fuc(a1-6)]GlcNAc
How it was run: as §1

[20] = molecular target: Gal(b1-4)GlcNAc(b1-2)Man(a1-3)[Man(a1-6)]Man(b1-4)GlcNAc(b1-4)GlcNAc
How it was run: as §1

[21] = molecular target: Gal(b1-4)GlcNAc(b1-2)Man(a1-6)Man(b1-4)GlcNAc(b1-4)GlcNAc
How it was run: as §1

[22] = molecular target: Gal(b1-4)GlcNAc(b1-2)Man(a1-6)[Man(a1-3)]Man(b1-4)GlcNAc(b1-4)GlcNAc
How it was run: as §1

[23] = molecular target: Gal(b1-4)GlcNAc(b1-2)[Gal(b1-4)GlcNAc(b1-4)]Man(a1-3)[Gal(b1-4)GlcNAc(b1-2)Man(a1-6)]Man(b1-4)GlcNAc(b1-4)GlcNAc
How it was run: as §1

[24] = molecular target: Gal(b1-4)GlcNAc(b1-3)Gal(b1-3)GlcNAc
How it was run: as §1

[25] = molecular target: Gal(b1-4)GlcNAc(b1-3)Gal(b1-4)Glc
How it was run: as §1

[26] = molecular target: Gal(b1-4)GlcNAc(b1-3)Gal(b1-4)GlcNAc
How it was run: as §1

[27] = molecular target: Gal(b1-4)GlcNAc(b1-3)Gal(b1-4)GlcNAc(b1-3)Gal(b1-4)GlcNAc
How it was run: as §1

[28] = molecular target: Gal(b1-4)GlcNAc(b1-3)Gal(b1-4)[Fuc(a1-3)]GlcNAc(b1-3)Gal(b1-4)[Fuc(a1-3)]GlcNAc
How it was run: as §1

[29] = molecular target: Gal(b1-4)GlcNAc(b1-3)GalNAc
How it was run: as §1

[30] = molecular target: Gal(b1-4)GlcNAc(b1-3)[Gal(b1-4)GlcNAc(b1-6)]Gal(b1-4)GlcNAc
How it was run: as §1

[31] = molecular target: Gal(b1-4)GlcNAc(b1-3)[GlcNAc(b1-6)]Gal(b1-4)GlcNAc
How it was run: as §1

[32] = molecular target: Gal(b1-4)GlcNAc(b1-6)Gal(b1-4)GlcNAc
How it was run: as §1

[33] = molecular target: Gal(b1-4)GlcNAc(b1-6)Gal(b1-4)GlcNAc(b1-6)GalNAc
How it was run: as §1

[34] = molecular target: Gal(b1-4)GlcNAc(b1-6)GalNAc
How it was run: as §1

[35] = molecular target: Gal(b1-4)GlcNAc(b1-6)[Gal(b1-3)]GalNAc
How it was run: as §1

[36] = molecular target: Gal3S(b1-3)GalNAc
How it was run: as §1

[37] = molecular target: Gal3S(b1-3)GlcNAc
How it was run: as §1

[38] = molecular target: Gal3S(b1-3)[Fuc(a1-4)]GlcNAc
How it was run: as §1

[39] = molecular target: Gal3S(b1-4)Glc
How it was run: as §1

[40] = molecular target: Gal3S(b1-4)Glc6S
How it was run: as §1

[41] = molecular target: Gal3S(b1-4)GlcNAc
How it was run: as §1

[42] = molecular target: Gal3S(b1-4)GlcNAc6S
How it was run: as §1

[43] = molecular target: Gal3S(b1-4)[Fuc(a1-3)]Glc
How it was run: as §1

[44] = molecular target: Gal3S4S(b1-4)GlcNAc
How it was run: as §1

[45] = molecular target: Gal3S6S(b1-4)GlcNAc
How it was run: as §1

B1: StdA (Salmonella typhimurium), Q8Z3Z0 (protein)
chain: MAAAGMMYGASVFAADTTPTAGPFGSGKILFTGTITNSPCDIAPGDDAITVPFGQISYRKLNTANATTDSKPFTIHLQNCAFDPNETTIAGSAGKMSKVTVSFSGTADTSGKAYVSTGSAQHVGVQLLKGDNTSLITPNTPMPDGDAQQLQAGNNELNFFARLIALTDAATPGDVNASVTYTLKYL
- glycan array binding signal (z-score) [1]: 0.042
- glycan array binding signal (z-score) [2]: 5.67
- glycan array binding signal (z-score) [3]: 2.26
- glycan array binding signal (z-score) [4]: -0.432
- glycan array binding signal (z-score) [5]: -0.401
- glycan array binding signal (z-score) [6]: 0.503
- glycan array binding signal (z-score) [7]: -0.177
- glycan array binding signal (z-score) [8]: 0.068
- glycan array binding signal (z-score) [9]: -0.525
- glycan array binding signal (z-score) [10]: -0.535
- glycan array binding signal (z-score) [11]: 0.325
- glycan array binding signal (z-score) [12]: -0.717
- glycan array binding signal (z-score) [13]: 0.061
- glycan array binding signal (z-score) [14]: -0.387
- glycan array binding signal (z-score) [15]: 0.101
- glycan array binding signal (z-score) [16]: -0.538
- glycan array binding signal (z-score) [17]: -0.386
- glycan array binding signal (z-score) [18]: -0.108
- glycan array binding signal (z-score) [19]: -0.496
- glycan array binding signal (z-score) [20]: -0.695
- glycan array binding signal (z-score) [21]: 0.708
- glycan array binding signal (z-score) [22]: -0.674
- glycan array binding signal (z-score) [23]: -0.028
- glycan array binding signal (z-score) [24]: 0.069
- glycan array binding signal (z-score) [25]: -0.338
- glycan array binding signal (z-score) [26]: -1.03
- glycan array binding signal (z-score) [27]: -0.173
- glycan array binding signal (z-score) [28]: -0.159
- glycan array binding signal (z-score) [29]: 0.068
- glycan array binding signal (z-score) [30]: -0.472
- glycan array binding signal (z-score) [31]: 0.177
- glycan array binding signal (z-score) [32]: 0.521
- glycan array binding signal (z-score) [33]: -0.216
- glycan array binding signal (z-score) [34]: -0.338
- glycan array binding signal (z-score) [35]: -0.122
- glycan array binding signal (z-score) [36]: -0.227
- glycan array binding signal (z-score) [37]: 0.018
- glycan array binding signal (z-score) [38]: 0.1
- glycan array binding signal (z-score) [39]: 0.314
- glycan array binding signal (z-score) [40]: -0.225
- glycan array binding signal (z-score) [41]: -0.078
- glycan array binding signal (z-score) [42]: -0.505
- glycan array binding signal (z-score) [43]: -0.547
- glycan array binding signal (z-score) [44]: 0.981
- glycan array binding signal (z-score) [45]: 0.151
